Test results from publication PMC6212790.
This is one part of the list. At the low end of the ranking, values are background and their order means little.
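Also: rank score from −0.5 (least bound) to 0.5 (best bound).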

What follows are sequences tested against T1, GST-Rok (full length) (UniProt O34857) (assay: protein binding microarray). Details: Rok is a gene silencer of Bacillus subtilis; high values mean tight binding; most listed sequences are background and not binding sites; double strand, one strand shown.
T1 sequence: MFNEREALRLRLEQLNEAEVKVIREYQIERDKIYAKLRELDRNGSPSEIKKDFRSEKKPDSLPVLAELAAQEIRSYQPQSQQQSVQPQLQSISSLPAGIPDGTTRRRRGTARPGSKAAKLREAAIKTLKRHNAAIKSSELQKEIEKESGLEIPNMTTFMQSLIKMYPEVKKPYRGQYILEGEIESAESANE
ATTAGCGG gave a binding signal of 0.239 E-score.
For AGGAGCAG, the binding signal was -0.336 E-score.
ACTAGACC gave a binding signal of -0.00464 E-score.
CGTTCTCC was tested, and the binding signal was -0.177 E-score.
Sequence ACTGATCT has a binding signal of 0.00895 E-score.
Work on CAACGTAG yielded a binding signal of 0.239 E-score.
Sequence AGAAATCA has a binding signal of 0.14 E-score.
ACGGCGAA showed a binding signal of -0.116 E-score.
ACGTACCA was tested, and the binding signal was 0.24 E-score.
ATGTCAAC showed a binding signal of 0.143 E-score.
TCACTCAA gave a binding signal of 0.112 E-score.
With AGAGGGAC the binding signal was -0.32 E-score.
Work on CAGACGTC yielded a binding signal of -0.0654 E-score.
Sequence CCTGCATA has a binding signal of 0.0724 E-score.
For ATACAACG, the binding signal was 0.167 E-score.
With CAATCAAC the binding signal was 0.0637 E-score.
With GACTTCAA the binding signal was -0.152 E-score.
For AGCCCTAG, the binding signal was -0.224 E-score.
GTCTTCAA gave a binding signal of 0.00975 E-score.
For ATATCTTG, the binding signal was 0.208 E-score.
AGCTACCA was tested, and the binding signal was 0.358 E-score.
In the case of GGATCACC, the binding signal is reported as -0.00151 E-score.
For CCTTGTGA, the binding signal was -0.0497 E-score.
With CTAAACCA the binding signal was 0.189 E-score.
In the case of CTAACAAG, the binding signal is reported as 0.0913 E-score.
TCCATCGA gave a binding signal of -0.0553 E-score.
CTACTCAA showed a binding signal of 0.0993 E-score.
GCCTTTGA showed a binding signal of -0.246 E-score.
CCGTATGC showed a binding signal of -0.123 E-score.
Work on CCTTATGA yielded a binding signal of 0.0154 E-score.
In the case of TGCCGACA, the binding signal is reported as -0.103 E-score.
CAGGATAG gave a binding signal of 0.0861 E-score.
ATGTACCG showed a binding signal of 0.264 E-score.
CATGTTTA gave a binding signal of 0.0387 E-score.
AGACGATA gave a binding signal of 0.0523 E-score.
ACCCTCCG showed a binding signal of -0.334 E-score.
Work on CAGTGGCA yielded a binding signal of -0.175 E-score.
TCTTTAAA showed a binding signal of -0.0267 E-score.
Sequence AATGGTCG has a binding signal of -0.163 E-score.
In the case of GAGGCCTC, the binding signal is reported as -0.266 E-score.
AGTCAAAG was tested, and the binding signal was -0.00276 E-score.
CCGGAGGA was tested, and the binding signal was -0.241 E-score.
CCGAGCAG was tested, and the binding signal was -0.222 E-score.
GTGATCAA gave a binding signal of -0.0698 E-score.
For AGTACCAA, the binding signal was 0.128 E-score.
In the case of AGAGCACA, the binding signal is reported as -0.114 E-score.
Sequence GAAATATA has a binding signal of 0.283 E-score.
Sequence ACACTGAC has a binding signal of -0.134 E-score.
AGTCTCCA was tested, and the binding signal was 0.00349 E-score.
Sequence AGTGCTTC has a binding signal of -0.236 E-score.
With TAACCCAA the binding signal was 0.0896 E-score.
GAAGACCA showed a binding signal of -0.161 E-score.
CGCTGAGC gave a binding signal of -0.0254 E-score.
In the case of GGCTCACA, the binding signal is reported as -0.237 E-score.
In the case of GACTCGAC, the binding signal is reported as -0.132 E-score.
CGCTTACA was tested, and the binding signal was -0.243 E-score.
ATGTAATA showed a binding signal of 0.307 E-score.
Work on GCCATCAC yielded a binding signal of -0.262 E-score.
For AGCGTAAT, the binding signal was 0.172 E-score.
With ACGAGCGT the binding signal was -0.179 E-score.
CGTTCGTC gave a binding signal of -0.173 E-score.
AGATGACT was tested, and the binding signal was -0.00444 E-score.
CACGGAAC gave a binding signal of 0.0407 E-score.
ATTGTGTA gave a binding signal of 0.316 E-score.
ATAGCTAA gave a binding signal of 0.311 E-score.
In the case of GAAGTTCA, the binding signal is reported as -0.0166 E-score.
With GTCGGCTA the binding signal was -0.0796 E-score.
GGCGCCCA gave a binding signal of -0.269 E-score.
AGGAGGTG showed a binding signal of -0.166 E-score.
ACGTGTGG was tested, and the binding signal was -0.0706 E-score.
For CACTTCCA, the binding signal was -0.0147 E-score.
CCCGGTAG showed a binding signal of -0.134 E-score.
CGCCCCCC showed a binding signal of -0.479 E-score.
Sequence TCCAGACA has a binding signal of -0.183 E-score.
TCTTTTCA gave a binding signal of -0.174 E-score.
TATCTAGA was tested, and the binding signal was 0.213 E-score.
AACCTAAA gave a binding signal of 0.102 E-score.
For ATTCTTAA, the binding signal was 0.0471 E-score.
GCCAGAAC gave a binding signal of -0.0634 E-score.
For CGAAGTAA, the binding signal was 0.078 E-score.
Sequence CACCAAGG has a binding signal of -0.213 E-score.
Work on CCACCTAA yielded a binding signal of -0.104 E-score.
CCCAGGGC was tested, and the binding signal was -0.309 E-score.
ACCTGAAT showed a binding signal of 0.192 E-score.
Sequence TGTCACAA has a binding signal of -0.157 E-score.
CACGGGTC was tested, and the binding signal was -0.19 E-score.
With GATTCTAA the binding signal was 0.134 E-score.
In the case of CAGCTGTC, the binding signal is reported as -0.0667 E-score.
GACCGCGC was tested, and the binding signal was -0.208 E-score.
AGGTGTAA gave a binding signal of 0.18 E-score.
For AGTAGTCG, the binding signal was 0.0651 E-score.
AATCGACA was tested, and the binding signal was 0.0867 E-score.
Work on GGGGCGGA yielded a binding signal of -0.319 E-score.
In the case of CATGTCAC, the binding signal is reported as -0.024 E-score.
Sequence CGGTCCGA has a binding signal of -0.123 E-score.
AACTATGC gave a binding signal of 0.0628 E-score.
In the case of CGTCCATA, the binding signal is reported as -0.0426 E-score.
Sequence ACAGGGCT has a binding signal of -0.141 E-score.
CCCGCGCC showed a binding signal of -0.36 E-score.
With GTCTTATA the binding signal was 0.253 E-score.
GGCATACA was tested, and the binding signal was 0.218 E-score.
For ACTTCGCT, the binding signal was 0.187 E-score.
Work on AGAAGAAC yielded a binding signal of 0.098 E-score.
AGTCGCAT showed a binding signal of -0.0319 E-score.
Work on GCCCCGTA yielded a binding signal of -0.197 E-score.
In the case of CCCCTATA, the binding signal is reported as -0.146 E-score.
Work on CTCCAGGC yielded a binding signal of -0.327 E-score.
CAGCGGCA gave a binding signal of -0.307 E-score.
With AGTCTGCA the binding signal was -0.0272 E-score.
AAGAACTA gave a binding signal of 0.197 E-score.
For ATTTAATG, the binding signal was 0.143 E-score.
With AATTCGGC the binding signal was 0.0891 E-score.
AAGAGGAT was tested, and the binding signal was 0.0284 E-score.
CGCAGGGA was tested, and the binding signal was -0.187 E-score.
Work on AACCGCCG yielded a binding signal of -0.186 E-score.
With ATGGCTTC the binding signal was -0.248 E-score.
In the case of TCAGAGCA, the binding signal is reported as -0.24 E-score.
Work on GATCCTGA yielded a binding signal of -0.144 E-score.
GATCTAGA showed a binding signal of 0.119 E-score.
For GCCCTCAA, the binding signal was -0.229 E-score.
ATCTTCAT was tested, and the binding signal was 0.0559 E-score.
With CAGAGACA the binding signal was -0.183 E-score.
AAACAACT showed a binding signal of 0.199 E-score.
For AAAACATC, the binding signal was 0.104 E-score.
Sequence CCTAATCA has a binding signal of 0.0328 E-score.
Work on AAACGTTA yielded a binding signal of 0.165 E-score.
Work on CCATCACA yielded a binding signal of -0.187 E-score.
GACAGCCC showed a binding signal of -0.245 E-score.
AAGGTCTA was tested, and the binding signal was 0.016 E-score.
Sequence ATACATGG has a binding signal of 0.113 E-score.
GTGCGCAA gave a binding signal of -0.0818 E-score.
For CTCATGCA, the binding signal was -0.0636 E-score.
CCGACGCA was tested, and the binding signal was -0.198 E-score.
Sequence GCCGTACA has a binding signal of -0.0477 E-score.
CGTCCCCA was tested, and the binding signal was -0.37 E-score.
Work on AAGCTGAC yielded a binding signal of -0.177 E-score.
Sequence CAACATCA has a binding signal of -0.166 E-score.
For GCAGGTAA, the binding signal was -0.0217 E-score.
With AATCTTGT the binding signal was 0.131 E-score.
With CCAACCTA the binding signal was 0.0696 E-score.
Work on GGTTTAAC yielded a binding signal of -0.00178 E-score.
CAGGGACG gave a binding signal of -0.28 E-score.
In the case of GCTCTAGA, the binding signal is reported as -0.192 E-score.
For AATTACAA, the binding signal was 0.217 E-score.
GTACACAA was tested, and the binding signal was 0.277 E-score.
With AGAGTGAG the binding signal was -0.191 E-score.
ACAGGAAG gave a binding signal of -0.0751 E-score.
CCCTGTGA showed a binding signal of -0.45 E-score.
Sequence ATCAAAAC has a binding signal of 0.0166 E-score.
TGACACAA gave a binding signal of -0.00668 E-score.
Work on CATAGCCG yielded a binding signal of -0.0675 E-score.
With CTCTGCGA the binding signal was -0.0061 E-score.
GGCAGAGA was tested, and the binding signal was -0.13 E-score.
In the case of AGGATTCG, the binding signal is reported as 0.00923 E-score.
For CGCGAATC, the binding signal was -0.171 E-score.
GTAGGAAA gave a binding signal of 0.293 E-score.
With GTTCCTTA the binding signal was -0.0408 E-score.
In the case of GCCATCAA, the binding signal is reported as -0.128 E-score.
Work on TGATTGCA yielded a binding signal of 0.106 E-score.
With ATTACCAG the binding signal was 0.228 E-score.
Sequence AAATAGCA has a binding signal of 0.0964 E-score.
Sequence ACGACTAG has a binding signal of 0.0443 E-score.
CCGCAAAA was tested, and the binding signal was -0.154 E-score.
CTCGGAAA was tested, and the binding signal was 0.182 E-score.
AGGTCCCC showed a binding signal of -0.373 E-score.
Work on ACTACCGG yielded a binding signal of 0.145 E-score.
For GTTTCAAA, the binding signal was -0.128 E-score.
Sequence ATCGCTTC has a binding signal of 0.025 E-score.
Sequence TCTTACAA has a binding signal of -0.0213 E-score.
ATGTACGG gave a binding signal of 0.149 E-score.
Sequence ATCCGCAT has a binding signal of 0.0829 E-score.
AACACCTA was tested, and the binding signal was 0.167 E-score.
